Over roughly 33,000 sequences, “E-score (-0.5 to 0.5)” has its median near -0.054; the highest 2% begin near 0.35. The list shows a part of the results.

The target of this test is T1, Stb5 (UniProt P38699).
T1 sequence: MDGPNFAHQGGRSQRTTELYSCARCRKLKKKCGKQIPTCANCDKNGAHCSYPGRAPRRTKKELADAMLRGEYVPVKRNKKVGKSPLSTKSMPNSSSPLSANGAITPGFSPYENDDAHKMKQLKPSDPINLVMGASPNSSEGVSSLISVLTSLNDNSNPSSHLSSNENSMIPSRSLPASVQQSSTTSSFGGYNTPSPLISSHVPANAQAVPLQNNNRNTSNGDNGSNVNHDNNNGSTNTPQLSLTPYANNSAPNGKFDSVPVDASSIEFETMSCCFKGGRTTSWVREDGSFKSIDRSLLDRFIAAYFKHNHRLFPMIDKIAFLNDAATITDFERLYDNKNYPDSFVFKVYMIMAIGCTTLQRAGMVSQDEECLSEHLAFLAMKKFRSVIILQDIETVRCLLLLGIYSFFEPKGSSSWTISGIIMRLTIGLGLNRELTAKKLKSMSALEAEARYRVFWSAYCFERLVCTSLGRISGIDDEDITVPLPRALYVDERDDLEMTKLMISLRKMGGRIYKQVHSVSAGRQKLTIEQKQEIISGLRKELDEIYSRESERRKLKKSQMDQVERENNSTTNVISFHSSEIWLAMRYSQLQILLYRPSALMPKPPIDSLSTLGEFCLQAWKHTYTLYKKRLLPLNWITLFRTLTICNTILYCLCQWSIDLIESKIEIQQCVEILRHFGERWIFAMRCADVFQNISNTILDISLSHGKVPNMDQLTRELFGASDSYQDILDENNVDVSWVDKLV
The experiment in a line: PBM E-score (8-mer binding enrichment) (E-score (-0.5 to 0.5)); higher = stronger / more preferred TF binding; most listed sequences are background and not binding sites. The conditions noted are these: protein concentration: 200 nM; construct: GST-full length. Put shortly: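 Using PURExpress in vitro transcription/translation, GST-tagged yeast transcription factors were made in full-length or DNA-binding-domain form. These were applied at about 100-200 nM to double-stranded universal all-10-mer Agilent arrays, and bound protein was detected with fluorescent anti-GST. Scans were normalised with masliner before the Universal PBM Analysis Suite assigned E-scores to ungapped eight-base words pooled with their reverse complements.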
Turning to GCCTATCC, the “PBM E-score” value was -0.129.

As to CCCTAGAG, the “PBM E-score” value was -0.166.

Consider TAACGACA, for which the “PBM E-score” value was -0.0102.

Turning to GTAGCTCA, the “PBM E-score” value was -0.161.

As to ATGTCAAT, the “PBM E-score” value is -0.214.

In the case of GAGTGGTA, the “PBM E-score” value is -0.145.

Take GTCCCCAC: the “PBM E-score” value is -0.109.

Turning to AGCCTGCG, the “PBM E-score” value is -0.122.

For the sequence AATCGAAC, the “PBM E-score” value is -0.199.

Turning to AAACTAAT, the “PBM E-score” value came to 0.0243.

With GTTACAAC, the “PBM E-score” value is -0.00522.

Regarding ATCTTCGG, the “PBM E-score” value was determined as 0.187.

ACGTGCCT: the “PBM E-score” value was -0.175.

Take ATTTGGGA: the “PBM E-score” value was -0.112.

Take ATCCCATC: the “PBM E-score” value was -0.224.

For the sequence GACTAGAA, the “PBM E-score” value is -0.00619.

Regarding ATCGGCGG, the “PBM E-score” value worked out at 0.363.

Take CTTGGGTA: the “PBM E-score” value is -0.128.

Turning to ACATCAGC, the “PBM E-score” value worked out at 0.0314.

In the case of CGGACCCC, the “PBM E-score” value turned out to be 0.214.

For the sequence CTTCGAAC, the “PBM E-score” value was -0.0695.

Turning to GCCACTCA, the “PBM E-score” value is -0.0669.

With GACTCACC, the “PBM E-score” value is -0.137.

Regarding TATAGGAA, the “PBM E-score” value is -0.165.

As to CAGTTGTC, the “PBM E-score” value is -0.0815.

For GGACTGCA, the “PBM E-score” value is -0.106.

In the case of GTATCAGA, the “PBM E-score” value is -0.0448.

As for CCGAAGTC, the “PBM E-score” value is 0.163.

Regarding CTACGCCA, the “PBM E-score” value was -0.139.

For GCACACCC, the “PBM E-score” value was -0.119.

Consider ACTACGCT, for which the “PBM E-score” value was 0.0319.

For TCAGGGCA, the “PBM E-score” value is -0.218.

As to TGCATCCA, the “PBM E-score” value is -0.259.

Consider TCTGTTAA, for which the “PBM E-score” value is -0.205.

With AGCACGCA, the “PBM E-score” value is -0.202.

As for AAACCCCT, the “PBM E-score” value is 0.153.

As to ACATGAGA, the “PBM E-score” value is -0.116.

In the case of ATTAGAAC, the “PBM E-score” value worked out at 0.0975.

For ACGGGTTG, the “PBM E-score” value was -0.0554.

Turning to GGTAAGCA, the “PBM E-score” value stood at 0.0288.

With ATGGGCGC, the “PBM E-score” value was -0.0937.

Take GATGTTCA: the “PBM E-score” value amounted to 0.058.

Regarding GACGGTCC, the “PBM E-score” value worked out at 0.288.

ACAAGTTG: the “PBM E-score” value was -0.15.

Consider CAACGGGC, for which the “PBM E-score” value is 0.206.

GCCAACGA: the “PBM E-score” value is -0.244.

On to AAATTTAG, for which the “PBM E-score” value is -0.073.

On to AACAAACA, for which the “PBM E-score” value is -0.0614.

Take CCGGAGCG: the “PBM E-score” value came out at 0.284.

Regarding CCTGCGTC, the “PBM E-score” value is -0.195.

As for CTGTTATA, the “PBM E-score” value was 0.171.

In the case of AAGCTATT, the “PBM E-score” value was -0.0751.

For the sequence ACGACGAG, the “PBM E-score” value was -0.257.

For the sequence GATTGTAA, the “PBM E-score” value is -0.0108.

As for CAACTTAG, the “PBM E-score” value is -0.111.

Take AAACGGAG: the “PBM E-score” value turned out to be 0.215.

On to ATTTGTTG, for which the “PBM E-score” value was determined as 0.0614.

For the sequence AGGCAAAG, the “PBM E-score” value was -0.391.

For the sequence AATGGAGA, the “PBM E-score” value is 0.0934.

For the sequence ACTAGTCT, the “PBM E-score” value was -0.238.

CGGTAGGA: the “PBM E-score” value was found to be 0.176.

ATTCACGA: the “PBM E-score” value was -0.174.

Turning to GCCGCCGA, the “PBM E-score” value was 0.329.

Consider AGGGATAA, for which the “PBM E-score” value was -0.21.

In the case of GACCCTGC, the “PBM E-score” value is -0.108.

On to TACAAGTA, for which the “PBM E-score” value is -0.108.

For GCACCGGC, the “PBM E-score” value amounted to 0.353.

As for AGGGCGTA, the “PBM E-score” value was -0.0435.

In the case of CGTGCCGA, the “PBM E-score” value stood at 0.212.

As for ATCCTACG, the “PBM E-score” value was -0.0474.

Regarding ATAGGGAG, the “PBM E-score” value was -0.352.

Consider ATAATCCA, for which the “PBM E-score” value is -0.0209.

For the sequence GGGTACGA, the “PBM E-score” value was -0.301.

As for ATCTACAT, the “PBM E-score” value is -0.193.

For ATATCCAG, the “PBM E-score” value was -0.147.

As for CCCACTTC, the “PBM E-score” value is -0.168.

In the case of TAAACATA, the “PBM E-score” value was -0.0401.

With CCGGTCGA, the “PBM E-score” value was 0.245.

Regarding AAACATAA, the “PBM E-score” value was -0.221.

Take CTTTAAAA: the “PBM E-score” value came to 0.124.

Regarding AATCTGAG, the “PBM E-score” value was -0.0516.

Consider CAATACGA, for which the “PBM E-score” value amounted to 0.0782.

For ACGGTCTG, the “PBM E-score” value is -0.0746.

GTGCCCAA: the “PBM E-score” value is -0.151.

For the sequence GAGTATAC, the “PBM E-score” value stood at 0.023.

Turning to CAGCTACA, the “PBM E-score” value is -0.143.

Consider GCCTTGCC, for which the “PBM E-score” value was -0.151.

Take GACTAAGC: the “PBM E-score” value is 0.0417.

As for CGGTTAGC, the “PBM E-score” value stood at 0.0831.

Regarding ATTAAGTA, the “PBM E-score” value was -0.0306.

Consider CGTTAATA, for which the “PBM E-score” value came to 0.146.

Take GGGACAAC: the “PBM E-score” value worked out at 0.0253.

GGGAAAAC: the “PBM E-score” value was found to be 0.113.

As for GACTGTCC, the “PBM E-score” value stood at 0.00266.
